The RNAGym collection of RNA variant scans (doi:10.7554/elife.90254)
Read counts are not given, so values of variants with three or more changes are uncertain.

B1: LINE1-mini (parent)
chain: GGCAGAGCUCAACACAGCGUGGCAAAGUGGCUGUGGCUAGACUGCC

Variants of: B1
Experiment: self-cleavage, relative activity (ratio to wild type); higher = more cleavage; in vitro, sequencing; the parent is a self-cleaving ribozyme

| Variant | self-cleavage |
| --- | --- |
| A24G C31A G35U | 0 |
| A25G G29C G40U | 0.15 |
| A24G U28G G33A | 0.03 |
| A25G A26C G27U G35A G40U | 0.23 |
| A24U A25G G30C G44U C46A | 0.01 |
| A24C G29U U34C G44U | 0.14 |
| A24U G27A C31G C45U | 0.57 |
| A25C G27A C31U G35A U43C | 0.06 |
| C23U U28C A39C | 0.05 |
| C23U G27A G44A C45G | 0.18 |
| A24C G29C U43C | 0.04 |
| C23U A26U A39G G44C | 0.06 |
| A24U A26U G33U | 0.06 |
| A25G G27A G33A G36A | 0.02 |
| C23U A25G A41U | 0.52 |
| A24C U28C G40A | 0.01 |
| A24U G29U A39U | 0.9 |
| A24U U32C G36A | 0.08 |
| A24C U28A C31G | 0.07 |
| C23U G30C G35U | 0.1 |
| A24C G27C C31A G35U | 0.03 |
| A25G G33U C45G | 0.01 |
| A24C G36A A41G C42U G44U | 0.04 |
| A24C G29U G35C C42A | 0.02 |

| Variant | self-cleavage |
| --- | --- |
| C23U A25C A41U | 0.49 |
| A25G G29C C42A | 0.08 |
| A25G G36U G40A | 0.14 |
| A25G G30A U38G C45G | 0.02 |
| A24C G30U C45G | 0.05 |
| A25G G30A U38G G40U C45U | 0.02 |
| A24C A25G G29U G30U C31G | 0.03 |
| A24U G40A C42G | 0.12 |
| A25G U34G G36U | 0.18 |
| C23U G27U G36U | 0.04 |
| A24G G30A A41G | 0.89 |
| C23U G33A C42A | 0.02 |
| A25C A26U C37A | 0.07 |
| A25G U28A A41C | 0.04 |
| A24G G40C U43A | 0.03 |
| C23U G29U C42A C46U | 0.16 |
| A24U G29U U34C | 0.08 |
| A24C U28A A39C | 0.13 |
| A24U G27A U28A G35U | 0.1 |
| C23U U32G G40U | 0.04 |
| A24G G29A C42A C45U | 0.4 |
| A24G G30A G33A | 0.19 |
| A25G G27A U43A | 0.14 |
| A25C G29A G30U C37G U38C | 0.04 |

| Variant | self-cleavage |
| --- | --- |
| A25G U28C G29U G44U | 0.02 |
| A24G G27C C31G G33A G36C | 0.08 |
| A24U U38G C42A | 0.03 |
| A24G G30U G44A | 0.09 |
| A24C C31A A39U C42G | 0.04 |
| A24C G33A G40A | 0.05 |
| C23U G33A U34C G40U C46A | 0.05 |
| A25C G40C C42U | 0.01 |
| A24G G27C U32G | 0.12 |
| A24C G30A G35C G40C C46A | 0.01 |
| A24G A25G G33A U43A | 0.02 |
| A25C C37G A39G | 0.03 |
| C23U A24G U28C G29C G30C | 0.01 |
| C23U C37A G44A | 0.41 |
| C23U C37A G44C | 0.03 |
| C23U A25U U28A | 0.44 |
| A24U A41C C45U | 0.02 |
| A24G G29A C37U A39U | 0.03 |
| A25C G29U U43A | 0.02 |
| A24C G29A G30U | 0.39 |
| A25C A26C U28C U34A G35A G36U U43A | 0.01 |
| A25G A26U G33C U34G C45A | 0.01 |
| A24U G29U C37U G44U | 0 |
| A25G G35U C42U | 0.18 |

| Variant | self-cleavage |
| --- | --- |
| A25C G35U A41C C42A | 0.02 |
| A25G U34G C46U | 0.01 |
| C23U A26C C45A | 0.58 |
| C23U A24C G27U U28C | 0.39 |
| A25C U38C G44C | 0.31 |
| A25C G33A G35C U38A | 0.05 |
| A25C G27A A41C G44U | 0.15 |
| A25G G30U C45G | 0.09 |
| C23U A24C A39U | 0.89 |
| C23U G33C A41C | 0.05 |
| C23U U34A G36A | 0.01 |
| A25C C31G A41C | 0.01 |
| A25G G29U C37G C42G | 0.05 |
| A24G G29U C31U C37U G44A | 0.01 |
| A24U G29A G30U | 2.08 |
| C23U G29A C31A | 0.49 |
| C23U G27U C31G G36A U43A C45A | 0.01 |
| A25C G40A C46U | 0.14 |
| C23U U28A U32A | 0.03 |
| A24C C37G G40A C42A | 0.03 |
| A24G A25C G27C C42A C45U | 0.1 |
| A24U A26C A41G | 0.32 |
| A25G C42A G44A | 0.04 |
| A24U U28A C37U G40C C42U | 0.01 |

| Variant | self-cleavage |
| --- | --- |
| A24G G27C U43G G44C | 0.04 |
| A25G A26G G29A | 0.51 |
| A24U G30U G40A C42G | 0.03 |
| A25G G27A C31A G36C C42G | 0.07 |
| C23U C31A G35A | 0.02 |
| A24U U28G G29U C31G U32C G33U G35C C37U | 0.1 |
| A25C C31A C37A C46A | 0.01 |
| A24U A26G U28C C37G C42A | 0.05 |
| C23U G27C C37G | 0.03 |
| C23U G33C U38A | 0.04 |
| A25G C37A A41U | 0.16 |
| A24C G27A C37A | 0.01 |
| A25C A26G C37A | 0.04 |
| A24U G30U U38C G44U | 0.03 |
| A25G G29A A39C | 0.21 |
| A25G G29C A41C | 0.03 |
| A25G G35U C45U | 0.01 |
| C23U A24G C31A U32A C46A | 0.19 |
| A24G A26G G33U | 0.02 |
| A24C A26U G27C U43C C45A | 0.1 |
| C23U A25G C37A | 0.01 |
| C23U G27U C42G G44C | 0.02 |
| A24U C31A U34G C37A G44A | 0.02 |
| A24G G36U U38A C45U | 0.02 |

| Variant | self-cleavage |
| --- | --- |
| A24U U32A G40U | 0.02 |
| C23U A25C C45G | 0.05 |
| A24G G27U G29C | 0.19 |
| A24G G35U A39C U43G | 0.3 |
| A24G G27A G29U C31A | 0.46 |
| A25G U32C G36U C42A G44A | 0.04 |
| A24G A25G U32A U38G G40A | 0.01 |
| A24C G29U U32A | 0.15 |
| C23U G27A U38A | 0.64 |
| C23U U28G G36C | 0.02 |
| A24U U38A U43A G44U | 0.02 |
| A24C A26G U28G | 0.12 |
| A24C A26U G30C C31G U34G G44U | 0.02 |
| A24C G33U G40A | 0.06 |
| C23U U34A A39G | 0.23 |
| A25C U38A A39G | 0.04 |
| A24U A26G U34C C37A | 0.01 |
| A25C G29U C42U | 0.12 |
| A24U G27U C31U U34A U43C | 0.02 |
| A24U G36A A39U | 0.09 |
| A25C G29U G40A | 0.04 |
| A24U A41U C45A | 0.62 |
| A24U A25C C42U G44U | 0.03 |
| A24C A25U A39U | 0.46 |

| Variant | self-cleavage |
| --- | --- |
| A24U G27A U28G U38G | 0.03 |
| A25G U34G A41G G44C | 0.04 |
| C23U C37U C45U | 0.02 |
| C23U C37U C45A | 0.08 |
| A24C G36A A41U | 0.31 |
| A25C U34A A41C G44A C45A | 0 |
| A25G G27U C37A | 0.17 |
| A24G U43A C45G | 0.05 |
| A25C G27U U28G U43A | 0.17 |
| C23U G30C U38A | 0.82 |
| A24G A25U G27C U32A | 0.06 |
| C23U G36U A39G | 0.01 |
| A24C C37G G44A | 0.04 |
| A24G U32C G40A | 0.02 |
| A25G G29U C37G | 0.03 |
| A25G G29U C37A | 0.07 |
| C23U A24G U28C U43A | 0.05 |
| A25C G36C G44A | 0.03 |
| A24C G30U U32C A41G | 0.08 |
| A24U A26U G33C U38A A41U | 0.03 |
| A24U G29A A39G | 0.19 |
| A24U G30U C37G G40C | 0.02 |
| C23G U43G C46G | 0.04 |
